# Some of the results follow.
# B1: Epa13 (Candida glabrata) (protein)
# chain: MGSSHHHHHHSSGLVPRGSHMASDSSENGYAHGCSPSIRAKLKPGLSMEIYSYALRPTDDHCWDSAYLDPMFPRTGYLTHKLLGKAEGIIGPLNFLAKNPACIPAVSTLPLAFHFPKPFTITNFTMLLYGYLSPKKTGKYTFKLLADDLLLMNFGADNAFDCCSHDATKDNIGEYVAYSVWPGVNKNVTVYLESGIYYPLRLFFNNRDAIAQLDFAYYFNDSPIRQTDFSGMFFSIPDSVKCPANI
# Legend:
# Assay in all cases: glycan array binding signal (z-score within array); higher = stronger binding
# Conditions in all cases: glycan notation: IUPAC condensed, linker removed
# [1] = target: Neu5Ac(a2-6)Gal(b1-3)GlcNAc(b1-3)[Gal(b1-4)GlcNAc(b1-6)]Gal(b1-4)Glc
# Method in brief: (§1)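 The binding signal is a Z-score computed within each array. Data were drawn from 3228 arrays in the Consortium for Functional Glycomics database, restricted to those with a known protein sequence. Scores were averaged over arrays of the same protein sequence at different concentrations or buffers, and over linkers, and negative values can be taken as non-binding.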
# Neu5Ac(a2-6)Gal(b1-4)Glc = target: Neu5Ac(a2-6)Gal(b1-4)Glc
# Method in brief: as §1
# [2] = target: Neu5Ac(a2-6)Gal(b1-4)GlcNAc
# Method in brief: as §1
# [3] = target: Neu5Ac(a2-6)Gal(b1-4)GlcNAc(b1-2)Man
# Method in brief: as §1
# [4] = target: Neu5Ac(a2-6)Gal(b1-4)GlcNAc(b1-2)Man(a1-3)Man(b1-4)GlcNAc(b1-4)GlcNAc
# Method in brief: as §1
# [5] = target: Neu5Ac(a2-6)Gal(b1-4)GlcNAc(b1-2)Man(a1-3)[Gal(b1-4)GlcNAc(b1-2)Man(a1-6)]Man(b1-4)GlcNAc(b1-4)GlcNAc
# Method in brief: as §1
# [6] = target: Neu5Ac(a2-6)Gal(b1-4)GlcNAc(b1-2)Man(a1-3)[GlcNAc(b1-2)Man(a1-6)]Man(b1-4)GlcNAc(b1-4)GlcNAc
# Method in brief: as §1
# [7] = target: Neu5Ac(a2-6)Gal(b1-4)GlcNAc(b1-2)Man(a1-3)[GlcNAc(b1-4)][Neu5Ac(a2-6)Gal(b1-4)GlcNAc(b1-2)Man(a1-6)]Man(b1-4)GlcNAc(b1-4)GlcNAc
# Method in brief: as §1
# [8] = target: Neu5Ac(a2-6)Gal(b1-4)GlcNAc(b1-2)Man(a1-3)[Man(a1-6)]Man(b1-4)GlcNAc(b1-4)GlcNAc
# Method in brief: as §1
# [9] = target: Neu5Ac(a2-6)Gal(b1-4)GlcNAc(b1-2)Man(a1-3)[Neu5Ac(a2-3)Gal(b1-4)GlcNAc(b1-2)Man(a1-6)]Man(b1-4)GlcNAc(b1-4)GlcNAc
# Method in brief: as §1
# [10] = target: Neu5Ac(a2-6)Gal(b1-4)GlcNAc(b1-2)Man(a1-3)[Neu5Ac(a2-6)Gal(b1-4)GlcNAc(b1-2)Man(a1-6)]Man(b1-4)GlcNAc(b1-4)GlcNAc
# Method in brief: as §1
# [11] = target: Neu5Ac(a2-6)Gal(b1-4)GlcNAc(b1-2)Man(a1-3)[Neu5Ac(a2-6)Gal(b1-4)GlcNAc(b1-2)Man(a1-6)]Man(b1-4)GlcNAc(b1-4)[Fuc(a1-6)]GlcNAc
# Method in brief: as §1
# [12] = target: Neu5Ac(a2-6)Gal(b1-4)GlcNAc(b1-2)Man(a1-6)Man(b1-4)GlcNAc(b1-4)GlcNAc
# Method in brief: as §1
# [13] = target: Neu5Ac(a2-6)Gal(b1-4)GlcNAc(b1-2)Man(a1-6)[Gal(b1-4)GlcNAc(b1-2)Man(a1-3)]Man(b1-4)GlcNAc(b1-4)GlcNAc
# Method in brief: as §1
# [14] = target: Neu5Ac(a2-6)Gal(b1-4)GlcNAc(b1-2)Man(a1-6)[GlcNAc(b1-2)Man(a1-3)]Man(b1-4)GlcNAc(b1-4)GlcNAc
# Method in brief: as §1
# [15] = target: Neu5Ac(a2-6)Gal(b1-4)GlcNAc(b1-2)Man(a1-6)[Man(a1-3)]Man(b1-4)GlcNAc(b1-4)GlcNAc
# Method in brief: as §1
# [16] = target: Neu5Ac(a2-6)Gal(b1-4)GlcNAc(b1-2)[Neu5Ac(a2-6)Gal(b1-4)GlcNAc(b1-4)]Man(a1-3)[GlcNAc(b1-4)][Neu5Ac(a2-6)Gal(b1-4)GlcNAc(b1-2)[Neu5Ac(a2-6)Gal(b1-4)GlcNAc(b1-6)]Man(a1-6)]Man(b1-4)GlcNAc(b1-4)GlcNAc
# Method in brief: as §1
# [17] = target: Neu5Ac(a2-6)Gal(b1-4)GlcNAc(b1-2)[Neu5Ac(a2-6)Gal(b1-4)GlcNAc(b1-4)]Man(a1-3)[GlcNAc(b1-4)][Neu5Ac(a2-6)Gal(b1-4)GlcNAc(b1-4)Man(a1-6)]Man(b1-4)GlcNAc(b1-4)GlcNAc
# Method in brief: as §1
# [18] = target: Neu5Ac(a2-6)Gal(b1-4)GlcNAc(b1-2)[Neu5Ac(a2-6)Gal(b1-4)GlcNAc(b1-6)]Man(a1-6)[Neu5Ac(a2-6)Gal(b1-4)GlcNAc(b1-2)Man(a1-3)][GlcNAc(b1-4)]Man(b1-4)GlcNAc(b1-4)GlcNAc
# Method in brief: as §1
# [19] = target: Neu5Ac(a2-6)Gal(b1-4)GlcNAc(b1-3)Gal(b1-3)GlcNAc
# Method in brief: as §1
# [20] = target: Neu5Ac(a2-6)Gal(b1-4)GlcNAc(b1-3)Gal(b1-4)GlcNAc
# Method in brief: as §1
# [21] = target: Neu5Ac(a2-6)Gal(b1-4)GlcNAc(b1-3)Gal(b1-4)GlcNAc(b1-2)Man(a1-3)[Neu5Ac(a2-6)Gal(b1-4)GlcNAc(b1-3)Gal(b1-4)GlcNAc(b1-2)Man(a1-6)]GalNAc
# Method in brief: as §1
# [22] = target: Neu5Ac(a2-6)Gal(b1-4)GlcNAc(b1-3)Gal(b1-4)GlcNAc(b1-3)Gal(b1-4)GlcNAc
# Method in brief: as §1
# [23] = target: Neu5Ac(a2-6)Gal(b1-4)GlcNAc(b1-3)Gal(b1-4)GlcNAc(b1-3)Gal(b1-4)GlcNAc(b1-2)Man(a1-3)[Neu5Ac(a2-6)Gal(b1-4)GlcNAc(b1-3)Gal(b1-4)GlcNAc(b1-3)Gal(b1-4)GlcNAc(b1-2)Man(a1-6)]GalNAc
# Method in brief: as §1
# [24] = target: Neu5Ac(a2-6)Gal(b1-4)GlcNAc(b1-3)Gal(b1-4)GlcNAc(b1-3)GalNAc
# Method in brief: as §1
# [25] = target: Neu5Ac(a2-6)Gal(b1-4)GlcNAc(b1-3)Gal(b1-4)GlcNAc(b1-3)[Neu5Ac(a2-6)Gal(b1-4)GlcNAc(b1-3)Gal(b1-4)GlcNAc(b1-6)]GalNAc
# Method in brief: as §1
# [26] = target: Neu5Ac(a2-6)Gal(b1-4)GlcNAc(b1-3)Gal(b1-4)GlcNAc(b1-6)[Gal(b1-3)]GalNAc
# Method in brief: as §1
# [27] = target: Neu5Ac(a2-6)Gal(b1-4)GlcNAc(b1-3)Gal(b1-4)[Fuc(a1-3)]GlcNAc(b1-3)Gal(b1-4)[Fuc(a1-3)]GlcNAc
# Method in brief: as §1
# [28] = target: Neu5Ac(a2-6)Gal(b1-4)GlcNAc(b1-3)GalNAc
# Method in brief: as §1
# [29] = target: Neu5Ac(a2-6)Gal(b1-4)GlcNAc(b1-3)[Neu5Ac(a2-6)Gal(b1-4)GlcNAc(b1-6)]GalNAc
# Method in brief: as §1
# [30] = target: Neu5Ac(a2-6)Gal(b1-4)GlcNAc(b1-6)GalNAc
# Method in brief: as §1
# [31] = target: Neu5Ac(a2-6)Gal(b1-4)GlcNAc(b1-6)[Gal(b1-3)GlcNAc(b1-3)]Gal(b1-4)Glc
# Method in brief: as §1
# [32] = target: Neu5Ac(a2-6)Gal(b1-4)GlcNAc(b1-6)[Gal(b1-3)]GalNAc
# Method in brief: as §1
# [33] = target: Neu5Ac(a2-6)Gal(b1-4)GlcNAc6S
# Method in brief: as §1
# Neu5Ac(a2-6)GalNAc = target: Neu5Ac(a2-6)GalNAc
# Method in brief: as §1
# [34] = target: Neu5Ac(a2-6)GalNAc(b1-4)GlcNAc
# Method in brief: as §1
# [35] = target: Neu5Ac(a2-6)GalNAc(b1-4)GlcNAc6S
# Method in brief: as §1
# [36] = target: Neu5Ac(a2-6)GlcNAc(b1-4)GlcNAc
# Method in brief: as §1
binder,measurement,setting,value
B1,glycan array binding signal (z-score),[1],-0.4
same,glycan array binding signal (z-score),Neu5Ac(a2-6)Gal(b1-4)Glc,0.076
same,glycan array binding signal (z-score),[2],-0.283
same,glycan array binding signal (z-score),[3],-0.062
same,glycan array binding signal (z-score),[4],-0.297
same,glycan array binding signal (z-score),[5],-0.141
same,glycan array binding signal (z-score),[6],-0.413
same,glycan array binding signal (z-score),[7],-0.507
same,glycan array binding signal (z-score),[8],-0.154
same,glycan array binding signal (z-score),[9],-0.262
same,glycan array binding signal (z-score),[10],-0.254
same,glycan array binding signal (z-score),[11],-0.441
same,glycan array binding signal (z-score),[12],-0.313
same,glycan array binding signal (z-score),[13],-0.468
same,glycan array binding signal (z-score),[14],0.143
same,glycan array binding signal (z-score),[15],-0.292
same,glycan array binding signal (z-score),[16],-0.188
same,glycan array binding signal (z-score),[17],-0.221
same,glycan array binding signal (z-score),[18],-0.218
same,glycan array binding signal (z-score),[19],0.146
same,glycan array binding signal (z-score),[20],-0.07
same,glycan array binding signal (z-score),[21],0.408
same,glycan array binding signal (z-score),[22],0.512
same,glycan array binding signal (z-score),[23],1.1
same,glycan array binding signal (z-score),[24],-0.142
same,glycan array binding signal (z-score),[25],0.154
same,glycan array binding signal (z-score),[26],-0.158
same,glycan array binding signal (z-score),[27],-0.164
same,glycan array binding signal (z-score),[28],-0.16
same,glycan array binding signal (z-score),[29],-0.47
same,glycan array binding signal (z-score),[30],0.211
same,glycan array binding signal (z-score),[31],-0.315
same,glycan array binding signal (z-score),[32],-0.381
same,glycan array binding signal (z-score),[33],-0.494
same,glycan array binding signal (z-score),Neu5Ac(a2-6)GalNAc,-0.619
same,glycan array binding signal (z-score),[34],-0.465
same,glycan array binding signal (z-score),[35],-0.173
same,glycan array binding signal (z-score),[36],-0.331

# — the supplement of paper PMC8728848
